Assay results taken from the supplement of paper PMC11417369.
± gives the standard deviation of the averaged measurements. The list shows a part of the results.

Each sequence was assayed on PfAP2-LT AP2 domain (GST-tagged) (assay: gcPBM binding intensity (ln(normalized median fluorescence intensity)); higher = stronger DNA binding).
Method in brief: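 Using an Agilent 4 × 180k array, primer-extended double-stranded 36-bp intergenic genomic probes and negative controls were exposed for 1 h to GST-fused P. falciparum DNA-binding domains expressed in E. coli. Binding was carried out in 1× PBS with 1% milk, 0.2 mg/ml BSA, 0.5% salmon testes DNA and 0.03% Triton X-100, and protein was detected with Alexa488 anti-GST antibody and a 488 nm scan. Binding intensity is the highest Masliner-normalised natural-log median intensity across replicate spots of either probe orientation.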

Sequence	gcPBM binding intensity (ln)
TCGAACATTAACATAACACACATATATATATATATA [CACACA_site2900]	9.88 ± 0.099
AAGGTTATTTATATATGTACTTAATATATATATATG [XGTACX_site886]	8.81 ± 0.35
TTTATAATATACATAACACACAATTATTATTTCTTA [CACACA_site3624]	8.55 ± 0.5
TTATAACAAATATAGAGTACTAAAATTTTACGTTAT [XGTACX_site1410]	8.61 ± 0.45
TTTTTTTCCTTATCTATATATAATCAAATTTTCTAC [CACACA_negctrl_site867]	8.48 ± 0.52
AACTTTTAGAAGAACACACACATATAGATTATGACC [CACACA_site6256]	9.24 ± 0.33
TTAGCAACTATTACTACACACATTTGTATATAATTT [CACACA_site1591]	9.05 ± 0.49
TTTTTTTTTTCTTGTTGTACTTTTAATAATTCATAT [XGTACX_site4704]	8.7 ± 0.42
TTATTAAAAAAAATATGTACTCACAATATAATATAT [XGTACX_site3738]	8.45 ± 0.47
GAAATTTTTAAAAAGGTGCTTTTAACAAAAATTATT [GTGCAC_site9687]	8.31 ± 0.35
TATATATATATAACATGTACATAAAATACATTTATA [XGTACX_site7370]	8.67 ± 0.31
ACCATCCTTAATACTTATTTTTTCACAATTAAGTAA [GTGCAC_negctrl_site269]	8.62 ± 0.43
AAAAAAAAAAAAAATGCATGTGCGTAAATAATAATA [TGCATGCA_site793]	8.81 ± 0.48
AGTATTTTAATTTCAGTGCATTTTATTCTATAATTA	8.71 ± 0.38
AAGTTTTCTTACAGATGTACTTTTTAAAAATAAACT [XGTACX_site6632]	8.66 ± 0.4
TTTAGGAAAGGCGGCACACATTTATATATTTATTTA [CACACA_site5931]	8.81 ± 0.4
ATATATATCTATATTTGTACATATTACATTCAAGTT [XGTACX_site1749]	8.94 ± 0.37
AAAAAAAAAAAAAGATGTACATATATTTTTATTATA [XGTACX_site654]	8.44 ± 0.54
AAGGATATAAAAAAACGTACGTACGATAATATAATT [XGTACX_site1292]	9.09 ± 0.45
AACCATTCTTCTAATTGTACATTGAAAAATCATGAT [XGTACX_site3854]	8.56 ± 0.35
AAAATATATATGTATGTTTATATGTTTATATATATT [XGTACX_negctrl_site337]	8.71 ± 0.41
AAAAAAAAATTTAAGTGTACATTCCATTTTAGTTTA [XGTACX_site5286]	8.43 ± 0.44
TCTAAGTATAAAGACACACAGAATAAAAAAAAATAT [CACACA_site2367]	8.94 ± 0.55

Sequence	gcPBM binding intensity (ln)
TATTTAATATATTTATGTACATATTTATTTATTATT [XGTACX_site524]	8.88 ± 0.51
AAGAAGCATAAATGTACACACATATTTATATATCAA [CACACA_site6743]	9.07 ± 0.53
TATTTTTCTTTATTGGTACACACGAAAAAAAAATTG [CACACA_site3054]	8.53 ± 0.47
AAAATCCAGTTTTCAAAATTGAACAAAAAAAAAATA [GTGCAC_negctrl_site542]	8.49 ± 0.49
ATATATTTTTTAAACACACACATAAATATTTGTGTA [CACACA_site2879]	9.16 ± 0.35
AAAGGATATGGACACACACACACATATATATATATA [CACACA_site8686]	10.5 ± 0.15
CAACACTTATTGAAACGTACGCATATAGTTTCTTTT [XGTACX_site8960]	8.84 ± 0.37
TTTATTTATATTTATACACACAAACATAATACTACT [CACACA_site7039]	8.96 ± 0.42
GGATAATATATTAGAACACACATATATCTGTAAAAA [CACACA_site4266]	9.16 ± 0.35
TAATATAATATATGCACACAAATATGTATATATGTG [CACACA_site2134]	9.29 ± 0.23
AATAAAATAATAAAAGCACACAAGAATACAGACAAA [CACACA_site112]	9.21 ± 0.4
TAAGTATAAATATTTACACACATTTGTTTTTTTTTA [CACACA_site7731]	8.78 ± 0.4
ATGTAAAACATAAAATGTACATATTATACAAACTAT [XGTACX_site5797]	9.1 ± 0.42
AACTATTTTATTATATGTACTTACGAATTTATAAAA [XGTACX_site5262]	8.46 ± 0.37
CACAAAATAAATTAAACACACAACATCAGATATGTA [CACACA_site6529]	9.09 ± 0.4
TAATATACATAATAATGTACATATTTTCATATATAC [XGTACX_site6913]	8.74 ± 0.35
TGTGTTGTAACAAAATGTACGAGCTTGATGTAGAAT [XGTACX_site2293]	9.04 ± 0.39
ATAAACTGATGTGTATGTACACATGTAATAATAAAT [XGTACX_site7649]	9.21 ± 0.6
AATGTAGGTTTATTTACACACAAATATAAATATATA [CACACA_site1523]	8.95 ± 0.45
ACAGTATCTGGTAGCTGTACGGATTGTAGAGAGTAG [XGTACX_site4872]	9.01 ± 0.46
AGAATAATAAAATGGGTGCAATAGTTTTTTTTTTTT [GTGCAC_site9823]	8.76 ± 0.48
CAAAACCTACATAACATACACACGCATATATAGAAT [CACACA_site2846]	9.35 ± 0.28
